Reference: publication PMC4336329 (PLoS ONE, 2015)
The campaign covered roughly 310,000 compounds. About 14,000 (4.5%) showed an effect of 50% or more. Effects have a minus sign here. This is one part of the list.
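Further: peak tail current of the secondary pulse compared with the same well before compound.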

These molecules were tested against human ether-à-go-go-related gene (hERG) potassium channel (human, UniProt Q12809) (assay: primary screen, population patch clamp on CHO cells stably expressing hERG).
Sequence of human ether-à-go-go-related gene (hERG) potassium channel (Q12809 whole entry, looked up): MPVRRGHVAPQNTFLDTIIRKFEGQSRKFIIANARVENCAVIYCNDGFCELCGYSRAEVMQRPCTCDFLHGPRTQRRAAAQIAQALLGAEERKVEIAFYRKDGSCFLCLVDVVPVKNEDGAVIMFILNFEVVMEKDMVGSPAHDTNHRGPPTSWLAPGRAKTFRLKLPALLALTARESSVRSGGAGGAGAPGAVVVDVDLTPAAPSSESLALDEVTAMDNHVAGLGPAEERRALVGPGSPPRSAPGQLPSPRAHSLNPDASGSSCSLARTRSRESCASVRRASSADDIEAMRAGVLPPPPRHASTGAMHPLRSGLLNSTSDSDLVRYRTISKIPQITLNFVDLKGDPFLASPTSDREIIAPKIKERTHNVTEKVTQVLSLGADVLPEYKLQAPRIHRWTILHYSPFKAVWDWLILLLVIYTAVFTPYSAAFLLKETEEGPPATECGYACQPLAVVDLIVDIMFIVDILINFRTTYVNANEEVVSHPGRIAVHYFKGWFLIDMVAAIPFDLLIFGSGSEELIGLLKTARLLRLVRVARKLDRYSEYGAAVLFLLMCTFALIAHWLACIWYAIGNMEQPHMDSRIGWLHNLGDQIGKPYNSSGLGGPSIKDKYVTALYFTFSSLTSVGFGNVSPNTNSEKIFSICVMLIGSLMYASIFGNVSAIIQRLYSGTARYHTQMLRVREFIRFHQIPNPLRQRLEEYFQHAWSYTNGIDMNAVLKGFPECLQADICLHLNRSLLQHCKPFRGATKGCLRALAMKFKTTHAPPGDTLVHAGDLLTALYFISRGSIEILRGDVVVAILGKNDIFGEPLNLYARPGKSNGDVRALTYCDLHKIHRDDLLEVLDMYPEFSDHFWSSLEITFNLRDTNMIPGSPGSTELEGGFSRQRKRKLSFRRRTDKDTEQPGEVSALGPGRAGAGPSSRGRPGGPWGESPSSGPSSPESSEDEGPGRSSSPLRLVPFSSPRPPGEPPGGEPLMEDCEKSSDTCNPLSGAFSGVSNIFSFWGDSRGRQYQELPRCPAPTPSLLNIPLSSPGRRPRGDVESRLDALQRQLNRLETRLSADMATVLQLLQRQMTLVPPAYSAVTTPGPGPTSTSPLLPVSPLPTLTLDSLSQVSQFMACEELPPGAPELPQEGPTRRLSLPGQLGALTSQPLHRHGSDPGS
In the case of O=C(O)CSc1nnc(NC(=O)c2ccc3c(c2)OCO3)s1, the “hERG current change (%, negative = inhibition) at 10uM” value is reported as -4.47%. For COc1ccccc1OCCN(C#N)c1nc(N(C)C)nc(N(C)C)n1, the “hERG current change (%, negative = inhibition) at 10uM” value was 6.09%. With O=c1cc(CS(=O)(=O)c2ccccc2)nc(-c2ccncc2)[nH]1 the “hERG current change (%, negative = inhibition) at 10uM” value was 9.86%. With CCOC(=O)c1sc(/N=C/c2c(O)n(-c3cccc(C)c3)c(=O)[nH]c2=O)c(C#N)c1C the “hERG current change (%, negative = inhibition) at 10uM” value was 5.2%. CCOC(=O)CSC1=Nc2ccccc2C2=NC(CC(=O)NCc3ccccc3)C(=O)N12 (stereo not drawn) was tested, and the “hERG current change (%, negative = inhibition) at 10uM” value was -34.6%. For COCCCNC(=O)Cn1c(=O)n(Cc2ccc(F)cc2)c(=O)c2sccc21, the “hERG current change (%, negative = inhibition) at 10uM” value was 5.58%. CCc1ccccc1NC(=O)C1CCCN1C(=O)Nc1ccc(C)cc1 (stereo not drawn) was tested, and the “hERG current change (%, negative = inhibition) at 10uM” value was 2.15%. CCOc1ccc(Nc2cc(C)nc3nc(C)nn23)cc1 was tested, and the “hERG current change (%, negative = inhibition) at 10uM” value was -33.2%. Cc1cc(C(=O)COC(=O)c2ccccc2O)c(C)n1CC1CCCO1 (stereo not drawn) was tested, and the “hERG current change (%, negative = inhibition) at 10uM” value was -42%. Cc1ccc(S(=O)(=O)N2CCN(C(=O)C(Cc3ccccc3)NC(=O)c3ccccc3)CC2)cc1 (stereo not drawn) was tested, and the “hERG current change (%, negative = inhibition) at 10uM” value was 16.6%. O=C(Cn1c(CO)nc2ccccc21)NCCc1ccccc1 was tested, and the “hERG current change (%, negative = inhibition) at 10uM” value was -3.08%. In the case of S=C(N/N=C/c1ccccc1Cl)Nc1cccc(Cl)c1Cl, the “hERG current change (%, negative = inhibition) at 10uM” value is reported as 12.9%. Cc1ccc(/C=C(\NC(=O)c2ccc(C)cc2)c2nc(=S)[nH][nH]2)cc1 was tested, and the “hERG current change (%, negative = inhibition) at 10uM” value was 5.82%. Cc1cccc(OCc2nnc(SCC(=O)N3c4ccccc4CC3C)n2C)c1C (stereo not drawn) was tested, and the “hERG current change (%, negative = inhibition) at 10uM” value was -8.59%. In the case of O=S(=O)(c1ccc2nc(COc3ccc(Cl)cc3Cl)[nH]c2c1)N1CCOCC1, the “hERG current change (%, negative = inhibition) at 10uM” value is reported as -19.2%. For C=CCNC(=S)NNC(=O)c1ccc(Br)cc1, the “hERG current change (%, negative = inhibition) at 10uM” value was 9.89%. For COc1ccc(CN(C(=O)c2ccco2)C2CC(C)N(C)CC2C)cc1 (stereo not drawn), the “hERG current change (%, negative = inhibition) at 10uM” value was -53.4%. CC(CCc1ccco1)NC(=O)c1cc2c(-c3ccccc3F)nn(C)c2s1 (stereo not drawn) was tested, and the “hERG current change (%, negative = inhibition) at 10uM” value was -5.86%. For O=C(NCc1n[nH]c(=S)n1-c1cccc(C(F)(F)F)c1)c1ccc(S(=O)(=O)N2CCCC2)cc1, the “hERG current change (%, negative = inhibition) at 10uM” value was 15.1%. In the case of Cc1cccc(CCNC(=O)C2CCN(S(=O)(=O)c3ccccc3)CC2)c1, the “hERG current change (%, negative = inhibition) at 10uM” value is reported as -25.4%. With CCn1c(COc2ccc(OC)cc2)nnc1SCc1nc2ccccc2c(=O)[nH]1 the “hERG current change (%, negative = inhibition) at 10uM” value was 25.3%. For COc1ccc(C(=O)NC2=NCCS2)c(OC)c1, the “hERG current change (%, negative = inhibition) at 10uM” value was 10.6%. For CC/C(=C/c1sc2ccccc2[n+]1CC)SC.COS(=O)(=O)[O-], the “hERG current change (%, negative = inhibition) at 10uM” value was 0.104%. With O=C(CN1C(=O)NC2(CCCCCCC2)C1=O)NCc1ccccc1Cl the “hERG current change (%, negative = inhibition) at 10uM” value was -4.32%. With Cc1ccc(NC(=O)CSc2ccc3nnc(-c4ccccn4)n3n2)cc1 the “hERG current change (%, negative = inhibition) at 10uM” value was -44.2%. In the case of Cc1ccccc1OCC(O)Cn1c(Br)nc2c1c(=O)[nH]c(=O)n2C (stereo not drawn), the “hERG current change (%, negative = inhibition) at 10uM” value is reported as -7.67%. O=C(Oc1ccc(/C=N/NC(=O)c2ccccn2)cc1)c1cccc(Br)c1 was tested, and the “hERG current change (%, negative = inhibition) at 10uM” value was 11.4%. With Cn1cc(NC(=O)CCl)cn1 the “hERG current change (%, negative = inhibition) at 10uM” value was 29.7%. In the case of Cc1cccc2sc(NC(=O)CSc3cn[nH]n3)nc12, the “hERG current change (%, negative = inhibition) at 10uM” value is reported as 16%. With O=C(NC(c1ccccc1)c1ccccc1)c1cccc(S(=O)(=O)NCc2ccccc2)c1 the “hERG current change (%, negative = inhibition) at 10uM” value was -5.66%. O=C(NC(=S)Nc1ccc(-c2ccc(CO)o2)cc1)c1cccs1 was tested, and the “hERG current change (%, negative = inhibition) at 10uM” value was 21%. In the case of O=C1NCCCC2c3c(cc(Br)c(O)c3Br)OC12N1CCCCC1 (stereo not drawn), the “hERG current change (%, negative = inhibition) at 10uM” value is reported as -6.13%. In the case of CC(O)[C@H]1CNCCN1CCc1cccc(F)c1 (stereo partly drawn), the “hERG current change (%, negative = inhibition) at 10uM” value is reported as 10.6%. For Cc1ccc(CCNC(=O)C2CCC(=O)N(CC3CCCCC3)C2)cc1 (stereo not drawn), the “hERG current change (%, negative = inhibition) at 10uM” value was 8.19%. In the case of COc1ccc(C(=O)CCc2ccccc2)cc1, the “hERG current change (%, negative = inhibition) at 10uM” value is reported as 9.03%. In the case of CN(C)S(=O)(=O)c1cccc(-c2nnc(SCC(=O)NCCCCCC(=O)O)n2-c2ccc(F)cc2)c1, the “hERG current change (%, negative = inhibition) at 10uM” value is reported as 17.6%. Cn1cccc1/C=C1/C(=O)NC(=O)N(C(C)(C)C)C1=O was tested, and the “hERG current change (%, negative = inhibition) at 10uM” value was 5.2%. In the case of CC(C)C(=O)Nc1nnc(CCc2ccccc2)s1, the “hERG current change (%, negative = inhibition) at 10uM” value is reported as -1.05%. With O=C(Nc1ccccc1)N1C2CCC1CC(O)(c1cccnc1)C2 (stereo not drawn) the “hERG current change (%, negative = inhibition) at 10uM” value was 8.01%. Cc1cccn2c(=O)c(C=NCc3ccco3)c(Nc3ccc(SC(F)F)cc3)nc12 was tested, and the “hERG current change (%, negative = inhibition) at 10uM” value was -8.4%. For Cc1ccc(-n2nc3c(c2NC(=O)c2ccc(S(=O)(=O)N4CCOCC4)cc2)CSC3)c(C)c1, the “hERG current change (%, negative = inhibition) at 10uM” value was -2.71%. With CCc1cccc(NC(=O)C2CCCN(c3cnccn3)C2)c1 (stereo not drawn) the “hERG current change (%, negative = inhibition) at 10uM” value was -9.21%. In the case of COc1cc(/C=N/Nc2snc(SC)c2C#N)ccc1O, the “hERG current change (%, negative = inhibition) at 10uM” value is reported as -3.46%. In the case of CCCCCCCCOC(=O)C[N+](C)(C)C/C=C(/C)Cl.[Br-], the “hERG current change (%, negative = inhibition) at 10uM” value is reported as -10.9%. With O=C(Nc1ccc(N2CCN(C(=O)c3ccco3)CC2)c(Cl)c1)c1cccnc1 the “hERG current change (%, negative = inhibition) at 10uM” value was -16.8%.
